# Data reported in the supplement of paper PMC11417369.
# This is one part of the list.
# System: PF3D7_0420300 AP2 domain 1 (GST-tagged)
# Assay: gcPBM binding intensity (ln(normalized median fluorescence intensity)); higher = stronger DNA binding
# How it was run: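 GST-tagged P. falciparum DNA-binding domains produced in E. coli were incubated for 1 h on an Agilent 4 × 180k array of primer-extended double-stranded 36-bp intergenic genomic probes with negative controls. Binding intensity is the highest Masliner-normalised natural-log median intensity across replicate spots of either probe orientation, with bound protein detected by Alexa488 anti-GST antibody at 488 nm.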
row,Sequence,gcPBM binding intensity (ln)
1,TATACTATACAACACATACACACAAAAAAAAAAAAA [CACACA_site537],9.74
2,TATTTCAAAATAAAATAAAATATATATATATGTATA [XGTACX_negctrl_site416],9.01
3,TAAATCATGGGATAAGCATGCGCGCACATGTTTGTT [TGCATGCA_site768],9.19
4,TTTATTTATTAAGAATGTACATGTATTTGTTAAATA [XGTACX_site4465],8.93
5,GTATTATCTGCTTTTTGTACACATATATTTAAAAAA [XGTACX_site7603],9.31
6,TTCTGTGTGTATTGGCGTACAATTATTTTGCCTACA [XGTACX_site205],9.56
7,ACATTCACAAAATTTTGTACACATATATATATATAT [XGTACX_site3518],9.46
8,AATGTGATAATATACACACACGCATATATATATATA [CACACA_site323],9.72
9,AAAACACTTATGGATTGTACAATAAAAATTATATTA [XGTACX_site7042],9.26
10,CTGTGTAATTTAAATTGTACGTTTGAAAAAAATAAA [XGTACX_site5667],8.96
11,TTTTAAAGAAAAAAATGTACAAAATTTTTATTTTAA [XGTACX_site1496],8.59
12,ACCCACGTAAATTAAGCATGCCTTCCGTTATATTTA [TGCATGCA_site365],9.54
13,TTTTACTAAATATATACACACATTATGCATATATAT [CACACA_site3287],9.52
14,TATATGTAATATTATACATGCATACATAATATATAT [TGCATGCA_site558],9.22
15,TATGTGAATATAATCACACACAATACGGAAAGAGAC [CACACA_site7311],10.2
16,TTTTTTTTTTATAAGGCACACATGAATATTTATACA [CACACA_site1316],9.17
17,TATTATATATATATATGTACATATTGTATGTTATAT [XGTACX_site5303],9.3
18,TTTTTTTCAATATTTGCACACGATTAAAATATTTAA [CACACA_site5266],9.22
19,TATGTGAATATTGAGGTGCGGTTGTTAAAATTTATA [GTGCAC_site9915],9.31
20,TTAAATATTTTTTATACACACATTTCTTATTTAACT [CACACA_site229],9.52
21,TAATTATTATTAATAGTACACACTATGGCATTTCAA [CACACA_site2488],9.19
22,AGTAGTCTGGAGAAGAGTACACAGTATCTGGTAGCT [XGTACX_site2042],9.11
23,ACATTAACATTGTTGGTGCAAAATTAATATGTTTTT [GTGCAC_site9673],9.24

row,Sequence,gcPBM binding intensity (ln)
1,ATAACTATAATAATCATACACACCAAAGAGAATATT [CACACA_site6970],9.85
2,ATTTTTCATTCTGGACATGTTACCATTATATATATG [CACACA_negctrl_site61],9.55
3,ATTATTACTTTTTGAGTGCACATACACACAGACATA,9.48
4,ATTAAAAAAATATACGCACACAAAATGTAATAACAA [CACACA_site2439],9.71
5,TAATTTGTTATGTATTGTACAAATAATATATGATAT [XGTACX_site1985],9.13
6,TTTTGTTTAAAAAAAAAAAACAAAAAAAAGCAATTA [CACACA_negctrl_site314],9
7,TTACATAATTTATGTACACACGCAAATACTTATAAT [CACACA_site4331],9.43
8,CCTAAAGTGTAAAATTCACACACATATATATATATA [CACACA_site8385],9.45
9,TTTATTTATAGGTATACACACTTTAATTAAAAGTTG [CACACA_site7232],9.26
10,TTTATTTTTGAAGTTGCACACACAAAAATAAAAAGT [CACACA_site8030],9.4
11,CAAAAATAATTTAGGTGTACAAATTTGACAAAAAAA [XGTACX_site188],9.15
12,AATTCAATTGAGCAAAATTCAAATAAATTAAAAAGA [XGTACX_negctrl_site71],9.1
13,TGATAATATTATATATGTACATATATGTATATTTTT [XGTACX_site7193],9.26
14,ATGAAACACTCCATAGTGCAAAATATATATTATATT,9.29
15,CTATTTTTCCTGAAATGTACAAGAATTTTATTTGAT [XGTACX_site8867],8.99
16,TTGGTATATTATAAAAGTACACATAATAAAAAATTT [XGTACX_site7985],9.26
17,ATATGGGTGAACATATGTACATATATATATTGATAA [XGTACX_site8438],9.26
18,TTTTACATAAATTATAAATATATAAAATAAAAAAAA [CACACA_negctrl_site1499],9
19,TTAATATTCCAGCTTTGTACATATATATATTATAAA [XGTACX_site7954],9.02
20,TGGCTTTCCCTGCCGGTGCATTAACATTTTTTACAT [GTGCAC_site9914],9.44
21,TTAATGGAAAAATAGGCACACACACCGATATACATA [CACACA_site8356],9.94
22,CATATATATATTTTTTGTACATATATTTTTACATAT [XGTACX_site8419],9.55
23,AAAAAGAAGAAGAAATGTACGTAACTATATATTTAT [XGTACX_site4362],9.41

row,Sequence,gcPBM binding intensity (ln)
1,AATTATTAAATATGTACACACGTACATTTTATAAAT [CACACA_site5341],9.25
2,AGTACATTATAGAATACACACCTATATATATATATA [CACACA_site4447],9.45
3,TATTTTGTTCTTTCCACACACAAATACATATATTGT [CACACA_site4071],9.69
4,TAATACATACACACATGTACATACAGAAATAAATAA [XGTACX_site3245],9.62
5,AATATAAAAATGTTTACACACACACGGAAATATATT [CACACA_site7226],10.1
6,ATGTTGTACAAACACACACACAAAAAAAAAATAAAA [CACACA_site2406],9.89
7,ATATATATATGTGGATGTACATATATCTCTTATTAT [XGTACX_site1748],9.27
8,GGAAAATGAAAACAAGGTACACATAAGAACAAACAA [XGTACX_site1221],9.96
9,AATAGGGTCATTCAAAAAAAAAAAAAATAATAATAC [CACACA_negctrl_site644],9.22
10,AAATTTGCTTTACCAGTGCAAAAAAAAAAAAAAAAA,8.81
11,AAATCACATAAAAATAGTACTTTTTTTTTTTTTTTT [XGTACX_site2696],9.14
12,TGTTTTTATCCTTATGGTACAGTATAATACTTACAG [XGTACX_site6381],9.24
13,ATTGTAAGGAAACACACACACATATATATGTATATA [CACACA_site676],9.98
14,AAATAAATACTAGGCACACACACATATATATATATA [CACACA_site2079],9.87
15,TATATGTTTAATTTCACACACAAATATGCATTTTAA [CACACA_site7881],9.53
16,ATTATTGTAATATTAGCACACATTACCTCACTACAA [CACACA_site2560],9.46
17,ATTATTCAGGTAAAGTGTACAGGAGAAAAATAAAAT [XGTACX_site334],9.67
18,ATATATATATATATATGTACGTATAATATATATATG [XGTACX_site2212],9.33
19,CGCACCCAAATATATACACACATATATATATATATA [CACACA_site1651],9.56
20,GGAAAATACATTCCAGTGCATTAATTTATTCAACGT,9.2
21,TTTTGGATCATTTGTTGTACATATGCAAAAAAAAAA [XGTACX_site3157],8.89
22,AAAAAAATAAAATTATATAAAATAAATTTTTATAAT [GTGCAC_negctrl_site587],8.97
23,TATGATACATAATATACATGCATACACAACATTCAG [TGCATGCA_site487],9.39

row,Sequence,gcPBM binding intensity (ln)
1,GATATGTGACGTTTGGTATTTTTGATGTTGGTAGGA [CACACA_negctrl_site1448],9.69
2,TAAAAGAAATATACATGTACATAAATATATATATAT [XGTACX_site1276],9.38
3,TATATTTGGAAATATTCTCAATTGGTACAAATAAAA [CACACA_negctrl_site1202],8.94
4,GCCCAACCAAAATATACACACAGTTGAATGAATAAA [CACACA_site2597],9.37
5,ATTTTTTTGTGTTTGGTACACACGTTATAAAAAATA [CACACA_site1345],9.3
6,TTGGTAATAATTTGAGGTACACTGTATAAATTTTTT [XGTACX_site909],9.1
7,TTTTTTTCTTAAAGATGTACTTTTTTAAAATAATCT [XGTACX_site3663],8.85
8,AATAATAAATTATGGTGTACGCATTTGTATATATAC [XGTACX_site5417],9.38
9,TTTTTTTTTTTTTTGGTGCGTTTATATATAAATATA,9.07
10,GGAATTATATGAAATAAACACACATATGTAATATTA [CACACA_site8586],9.33
11,TACATCGACCTATGTACATGCAAATTATTTTTATTT [TGCATGCA_site182],9.39
12,AAAATCTAATATAATGCACACATAAAAAAAAAATCA [CACACA_site8871],9.49
13,CTTTTAATATGTGTAGTGCATTTTTTTTTTTTTTTT [GTGCAC_site9727],9.39
14,AAAAAAAAAAAAAACACACACAACACCCATACCTTA [CACACA_site3621],9.76
15,GTCCTTCATCATATTTAACACACAGAGAAAAAGCGG [CACACA_site7979],9.49
16,TTTATATATTATTAATGTACAAAATTTTTATTGCAT [XGTACX_site3329],8.94
17,TAAATACAGAAACACACACACAAATATATACATACA [CACACA_site2880],10.1
18,AATTCTTTTTTCAACACACACACACTAGAAAATATA [CACACA_site5681],9.93
19,ACATTAAGACACATTGCACACGTGCACCCATAGAAA [CACACA_site8029],9.43
20,ACCTGGACAAAAATAAATAAATAAATAAATAAATGA [GTGCAC_negctrl_site238],9.19
21,CATCCTATTACTTGGTGTACTATTTTATATTGAATA [XGTACX_site1050],9.58
